# Laboratory results published in the supplement of paper PMC12217912.
# Some of the results follow. Sequences were assembled here from the parent chain. Values near 0.05 are background.
# B1: TEV protease; numbered along this chain (parent)
# chain: MGESLFKGPRDYNPISSSICHLTNESDGHTTSLYGIGFGPFIITNKHLFRRNNGTLVVQSLHGVFKVKDTTTLQQHLVDGRDMIIIRMPKDFPPFPQKLKFREPQREERICLVTTNFQTKSMSSMVSDTSCTFPSGDGIFWKHWIQTKDGQCGSPLVSTRDGFIVGIHSASNFTNTNNYFTSVPKNFMELLTNQEAQQWVSGWRLNADSVLWGGHKVFMVKPEEPFQPVKEATQL
# Variants of: B1
# Assay: raw area under fraction-flipped curve 0-4 h after induction (AUC4h, not background-subtracted), DNA-recorder readout of cleavage of the substrate (dimensionless); higher = more cleavage of the substrate by the protease variant
# Settings: temperature: 34 °C; time window: 0-4 h after rhamnose induction
# Description: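 In vivo DNA recorder in E. coli TOP10(DE3) ΔrhaA at 34 °C. Each TEVp single-site mutant (parent TEVp 0) is paired with a single-site variant of the 7-mer TEVs (canonical ENLYFQ|S). The substrate sits between flexible linkers in a Bxb1-sfGFP-TEVs-SsrA fusion, so cleavage stabilises Bxb1 and speeds flipping of a recombination array, read by NGS. The value is the raw area under the fraction-flipped curve over 0-4 h after rhamnose induction (AUC4h), with ≥20 reads per time point. It is not background-subtracted; inactive controls average about 0.047.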
# 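Note: Bxb1 expression induced with 0.2% (w/v) L-rhamnose at OD600 near 0.5, cultures sampled hourly, flipped fraction per protease–substrate barcode pair counted by paired-end Illumina sequencing.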
Variant,area with substrate ENAYFQS,area with substrate ENCYFQS,area with substrate ENDYFQS,area with substrate ENFYFQS,area with substrate ENGYFQS,area with substrate ENHYFQS,area with substrate ENIYFQS,area with substrate ENKYFQS,area with substrate ENMYFQS,area with substrate ENNYFQS,area with substrate ENQYFQS,area with substrate ENRYFQS,area with substrate ENSYFQS,area with substrate ENTYFQS,area with substrate ENVYFQS,area with substrate ENWYFQS,area with substrate ENEYFQS,area with substrate ENPYFQS,area with substrate ENYYFQS
G150C,0.0481,0.0634,0.0489,0.0588,0.0607,0.0599,0.0632,0.0619,0.0388,0.0617,0.0594,0.0647,0.0589,0.0553,0.0534,0.0595,–,–,–
G150N,0.0566,–,0.0566,–,0.0602,0.0532,0.0627,–,0.0564,0.0568,0.0588,0.0188,0.0569,–,–,–,0.0544,0.0576,0.0668
V183K,0.0634,0.0665,0.0516,0.0473,0.0617,0.0598,0.0573,–,0.0485,0.06,0.0555,0.0596,0.051,0.0595,0.0648,–,0.0681,0.0651,–
T176P,0.0561,0.0746,–,0.0576,0.0695,0.0541,0.0726,–,0.0474,–,0.0682,0.0599,–,–,–,0.0551,0.0593,–,–
I145R,0.0643,–,0.0736,–,0.042,0.0637,–,–,0.0517,–,–,0.0609,–,0.0541,0.0519,–,0.0463,–,–
I145T,0.0615,0.0647,0.0565,0.0617,0.0605,0.0536,–,0.0656,0.0923,0.0661,0.0532,0.0611,0.0548,0.0601,0.0715,–,0.059,0.0559,0.0615
I145E,0.0474,–,0.0518,–,0.0503,–,–,–,–,0.05,–,–,0.0616,–,0.0694,–,–,–,–
V165C,0.059,–,0.0598,0.076,0.0509,0.0584,0.0993,–,–,–,–,0.0615,0.0596,0.0616,0.0723,0.0293,0.0698,0.0585,–
V165N,0.0463,–,–,0.0612,–,–,–,–,–,0.0461,–,–,–,0.0545,–,–,0.0473,0.0206,–
K142Y,0.0683,0.0532,0.0689,0.0575,0.059,–,0.121,–,0.0931,0.0467,0.0615,–,0.0802,0.0689,0.0943,–,0.06,–,–
F187P,0.0424,–,0.0368,–,–,0.0436,–,0.071,0.0634,–,0.0491,0.0503,0.0359,0.0501,–,–,0.0455,0.0507,–
D161Q,0.0612,–,0.052,0.057,0.0448,0.0579,–,–,0.0546,0.0452,0.0491,0.0735,0.0297,0.0589,0.0533,0.0397,0.0473,–,–
G166C,0.0492,0.0672,0.0663,0.0579,0.0597,0.0411,0.0591,0.0695,0.0454,–,0.0808,0.0559,0.0562,0.0591,0.0468,0.0359,0.06,0.0459,0.0578
Y179M,0.0853,–,–,–,–,–,–,0.0862,–,0.0678,0.0499,0.0609,–,–,0.0638,0.0533,0.0607,0.0565,–
